# Among all 290,000 compounds or so, about 1,100 (0.38%) were called active. Inconclusive results, whose numbers are uncertain, are shown with a selection of clear calls. Calls come from the whole dose curve; as a rule, active = well fitted inhibition curve with a large enough effect; inconclusive = small, poorly fitted or top-dose-only effect, or another doubt; inactive = no such curve, though single readings can be large or run the other way. Potencies of inconclusive entries are doubtful fits and often do not repeat.
# Target: Pyruvate kinase (Leishmania mexicana) (UniProt Q27686)
# Chain of UniProt Q27686 (Q27686 whole entry, looked up): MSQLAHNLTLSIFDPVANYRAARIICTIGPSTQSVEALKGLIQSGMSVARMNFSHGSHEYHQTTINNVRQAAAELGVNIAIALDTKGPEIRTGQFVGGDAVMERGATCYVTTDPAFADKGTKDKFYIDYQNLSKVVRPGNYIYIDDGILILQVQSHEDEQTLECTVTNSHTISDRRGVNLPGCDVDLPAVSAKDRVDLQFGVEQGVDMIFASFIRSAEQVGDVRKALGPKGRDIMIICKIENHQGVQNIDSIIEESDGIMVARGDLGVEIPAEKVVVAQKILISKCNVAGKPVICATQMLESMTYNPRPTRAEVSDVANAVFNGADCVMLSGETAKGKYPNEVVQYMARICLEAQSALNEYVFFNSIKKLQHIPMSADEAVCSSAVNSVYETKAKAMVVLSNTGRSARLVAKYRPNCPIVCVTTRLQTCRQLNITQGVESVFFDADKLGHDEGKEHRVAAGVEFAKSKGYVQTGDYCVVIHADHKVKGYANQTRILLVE
# Assay: qHTS Assay for Inhibitors of Leishmania Mexicana Pyruvate Kinase (LmPK)
# Settings: purified LmPK, Kinase-Glo ATP luminescence, 1 h; activity change, negative = inhibition: at 57.5 µM (top of the series) unless noted
# Text: NIH Chemical Genomics Center [NCGC] Malcolm Walkinshaw, Hugh Morgan, Linda Gilmore University of Edinburgh, UK MLPCN Grant: 1 R03 MH085697-01 NCGC Assay Overview: Pyruvate kinase (L. Mexicana) (LmPK) enzyme was supplied as a highly purified (>95% pure) sulphate-free preparation from University of Edinburgh, UK and assayed for its ability to generate ATP from ADP using phosphoenolpyruvate (PEP) as a substrate. ATP generation was detected in a coupled reaction by luciferase-mediated luminescence, an ATP-dependent process. […] The enzyme was assayed at an intermediate level of activity to screen for both inhibitors and activators.
# NCGC Assay Protocol Summary: Three uL of enzyme mix (kept on ice) in assay buffer (50 mM Imidazole pH7.2, 50 mM KCl, 7 mM MgCl2, 0.01% Tween 20, 0.05% BSA) containing PEP (0.5 mM final concentration) and LmPK (0.1 nM final concentration) was dispensed into white solid bottom 1,536 well microtiter plates. 23 nL of compound were delivered by a pin tool and 1 uL of ADP mix in assay buffer (r.t; 0.1 mM final ADP concentration) was added. Plates were incubated at room temperature for 1 hour. Two uL of detection mix (Kinase-Glo, Promega; at 4 degree Celsius protected from light) was added and luminescence read by a ViewLux (Perkin Elmer) at 1 second exposure/plate. Data were normalized to the uninhibited and AC100 inhibition (no enzyme). To monitor activation, the first column contained a five-fold concentration of LmPK (0.5 nM).
# % is set by controls: 0 for no effect and ±100 for the full control effect; potency is the fitted concentration of half-maximal effect; tags give direction and shape of the fitted curve.
SMILES,Potency,"activity change, negative = inhibition"
CC(C)c1ccc2oc3nc(N)c(C(=O)O)cc3c(=O)c2c1,active: 7.08 µM,–
Cc1noc(C)c1CSc1nc2ccccc2c(=O)n1-c1ccccc1,–,inactive: 7.29%
COc1cccc(C(=O)/C=C2\Sc3ccccc3N2C)c1,"inconclusive: 28.2 µM [falling, single point]",–
COc1ccccc1OC1=NS(=O)(=O)c2ccccc21,active: 12.6 µM,–
CCNc1nc(SCC(=O)OC)nc(N2CCOCC2)n1,–,inactive: -0.779%
CCn1nccc1C(=O)Nc1ccc(Cl)cn1,active: 28.2 µM,–
COC(Cc1n[nH]c(=S)n1-c1ccc(Cl)cc1)OC,"inconclusive: 17.8 µM [falling, partial curve]",–
Cc1ccc(/C=N/c2sc3c(c2C(N)=O)CCCC3)o1,–,inactive: -5.96%
CSC1=NCCN1C(=O)c1ccc(Br)o1,–,inactive: 9.17%
CC(C)(C)C1CCc2c(sc3nc(SCC(=O)O)nc(N)c23)C1 (stereo unspecified),active: 25.1 µM,–
CC(=O)Oc1ccc(OC(C)=O)c(SCCCCCCl)c1,active: 11.2 µM,–
Oc1csc(Cc2nc(-c3ccccc3F)cs2)n1,–,inactive: -8.51%
CN(C(=O)CCN1C(=O)S/C(=C\c2ccccc2)C1=O)C1CCS(=O)(=O)C1 (stereo unspecified),–,inactive: -1.4%
COc1ccc(C(CC(=O)c2ccccc2)S(=O)(=O)c2ccccc2)cc1 (stereo unspecified),"inconclusive: 15.8 µM [falling, partial curve]",–
CC(C)C1N=C(c2ccc3c(c2)OCO3)CC(c2ccccc2O)N1 (stereo unspecified),"inconclusive: 11.2 µM [falling, partial curve]",–
Cc1cccc(/C=C2\CCC(=C3SCCCS3)C2=O)c1,"inconclusive: 20 µM [falling, single point]",–
Cc1cc(/C=C2\SC(=O)N(CC(=O)Nc3ccccc3F)C2=O)c(C)n1C,–,inactive: -4.09%
Cc1cc(O)c(C(=O)/C=C/c2cccc([N+](=O)[O-])c2)c(=O)o1,"inconclusive: 35.5 µM [falling, single point]",–
CCOc1ccc(NC(=O)C23CC4CC(C2)CC(c2ccccc2)(C4)C3)cc1,–,inactive: 1.99%

SMILES,Potency,"activity change, negative = inhibition"
Cc1noc2ncnc(N3CCN(c4cccc(Cl)c4)CC3)c12,–,inactive: 1.67%
O=C(Nc1ccc(-c2nc3ccccc3o2)cc1)C1CCCO1 (stereo unspecified),active: 15.8 µM,–
CCOC(=O)c1[nH]c2ccc(C)cc2c1N,active: 12.6 µM,–
Cc1cccn2cc(-c3ccc(Cl)cc3)nc12,"inconclusive: 15.8 µM [falling, partial curve]",–
S=c1[nH]nc(Cn2nnc3ccccc32)n1-c1ccc(Cl)cc1,"inconclusive: 11.2 µM [falling, partial curve]",–
Oc1ccc(N=Nc2n[nH]c(-c3ccccc3)n2)cc1,"inconclusive: 14.1 µM [falling, partial curve]",–
Cc1cnc(NC(=O)COc2ccccc2Cl)s1,"inconclusive: 20 µM [falling, partial curve]",–
O=C(Nc1cnn(C23CC4CC(CC(C4)C2)C3)c1)c1cnn2cccnc12,–,inactive: 5.63%
O=C(Nc1cccnc1)c1noc2c1CCCC2,"inconclusive: 28.2 µM [falling, single point]",–
COc1ccc2nc(N3C(=O)CNC3=S)sc2c1,"inconclusive: 22.4 µM [falling, partial curve]",–
O=C(O)c1ccccc1C(=O)Nc1cc(-c2ccccc2)[nH]n1,–,inactive: -0.541%
O=C(CCSc1ccc(Cl)cc1)NC1CCCC1,–,inactive: -4.26%
O=S(=O)(c1ccccc1)c1nc(Nc2cccc(O)c2)sc1Cl,–,inactive: 0.455%
COCCCn1c(=S)[nH]c2sc3c(c2c1=O)CCCS3,"inconclusive: 22.4 µM [falling, partial curve, poor fit]",–
O=C(CCCN1C(=O)/C(=C/c2ccccc2Cl)SC1=S)NNC(=O)c1ccccc1Cl,–,inactive: -5.98%
O=[N+]([O-])c1cccnc1NCCc1ccccc1,"inconclusive: 14.1 µM [falling, partial curve]",–
O=C(c1ccc(Cl)cc1)C1CCCN(Cc2ccon2)C1 (stereo unspecified),–,inactive: -1.2%
CCn1nc(C)c(/C=N/NC(=O)c2ccoc2C)c1C,"inconclusive: 28.2 µM [falling, partial curve]",–
O=C1C(Nc2ccc(O)cc2)=C/C(=N/S(=O)(=O)c2cccs2)c2ccccc21,"inconclusive: 25.1 µM [falling, single point]",–

SMILES,Potency,"activity change, negative = inhibition"
COc1ccc(-c2cc(C(=O)NCc3ccco3)c3ccccc3n2)cc1,–,inactive: 0.455%
Cc1ccc(-c2nnc(SCC(=O)N/N=C/c3ccc(C)s3)n2-c2ccc(C)cc2)cc1,–,inactive: -2.56%
Cc1ccnc(NC(=O)c2ccc(Br)s2)c1,"inconclusive: 31.6 µM [falling, single point]",–
CCCNc1ncccc1C(N)=O,–,inactive: 0.504%
Cc1cc(-c2n[nH]c(=S)n2Cc2ccccc2)cs1,"inconclusive: 12.6 µM [falling, partial curve]",–
CCN(CC)c1ccc2oc(=O)c(C)nc2c1,"inconclusive: 31.6 µM [falling, single point]",–
O=C(c1ccccc1)c1cnc(-c2ccc(Cl)cc2)s1,"inconclusive: 25.1 µM [falling, partial curve]",–
CCOc1ccc(C(C)=O)cc1N1C(=O)C2C3C=CC(O3)C2C1=O (stereo unspecified),"inconclusive: 15.8 µM [falling, partial curve]",–
O=C1NC(c2ccccc2)=N/C1=C/c1ccco1,"inconclusive: 14.1 µM [falling, partial curve]",–
Cc1ccc(OCCNC(=O)c2ccccc2F)cc1,–,inactive: 0.642%
Cc1cc(C)c(S(=O)(=O)Nc2cc(SCC(=O)O)c(O)c3ccccc23)cc1C,active: 20 µM,–
Cc1ccccc1/C=N/NC(=O)c1sccc1C,"inconclusive: 7.94 µM [falling, partial curve]",–
C/C(=N\NC(=O)c1ccc(Cl)cc1)c1cccs1,"inconclusive: 31.6 µM [falling, single point]",–
Cc1nnc(SCc2cccc(Oc3ccccc3)c2)n1N,–,inactive: 2.07%
CC(C)(Oc1ccc(Cl)cc1)C(=O)Nc1ccc2oc(=O)ccc2c1,–,inactive: -1.85%
CCc1ccc(C(=O)CSC2=C(C#N)C(c3ccco3)C(C(C)=O)=C(C)N2)cc1 (stereo unspecified),–,inactive: 15.7%
COc1cccc(/C=N/NC(=O)c2cccc3ccccc23)c1,–,inactive: 7.06%
CN1CCN(C(=S)NC(=O)c2ccc(Br)cc2)CC1,"inconclusive: 25.1 µM [falling, single point]",–
